Reference: the supplement of paper PMC3334620
The full ranking holds about 33,000 sequences; the median of “E-score (-0.5 to 0.5)” is about -0.011, and the highest 2% start at about 0.28. Some of the results follow.

Target: T1, Gcr1 (UniProt P07261)
T1 sequence: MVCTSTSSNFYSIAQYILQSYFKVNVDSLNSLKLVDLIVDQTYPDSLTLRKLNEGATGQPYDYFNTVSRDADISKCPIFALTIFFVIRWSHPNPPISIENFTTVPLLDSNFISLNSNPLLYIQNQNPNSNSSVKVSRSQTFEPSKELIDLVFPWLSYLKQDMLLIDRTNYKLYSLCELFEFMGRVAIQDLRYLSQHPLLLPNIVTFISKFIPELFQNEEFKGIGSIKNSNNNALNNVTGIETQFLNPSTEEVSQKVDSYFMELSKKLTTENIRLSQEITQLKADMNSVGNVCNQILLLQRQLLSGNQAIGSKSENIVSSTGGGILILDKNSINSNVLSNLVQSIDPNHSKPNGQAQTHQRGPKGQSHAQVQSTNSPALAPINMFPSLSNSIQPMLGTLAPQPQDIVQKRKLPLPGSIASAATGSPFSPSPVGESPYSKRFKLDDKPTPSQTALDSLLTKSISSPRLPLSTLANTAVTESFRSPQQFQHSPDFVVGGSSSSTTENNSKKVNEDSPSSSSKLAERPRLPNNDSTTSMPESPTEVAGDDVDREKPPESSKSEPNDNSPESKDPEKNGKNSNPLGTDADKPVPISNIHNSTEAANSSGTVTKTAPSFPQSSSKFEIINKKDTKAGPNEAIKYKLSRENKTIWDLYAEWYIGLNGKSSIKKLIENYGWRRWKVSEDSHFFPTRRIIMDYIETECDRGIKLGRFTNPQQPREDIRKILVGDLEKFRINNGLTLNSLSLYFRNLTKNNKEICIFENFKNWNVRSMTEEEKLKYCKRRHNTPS
Assay: PBM E-score (8-mer binding enrichment) (E-score (-0.5 to 0.5)); higher = stronger / more preferred TF binding; most listed sequences are background and not binding sites
Conditions: protein concentration: 100 nM; construct: GST-full length
Protocol: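 Universal 'all 10-mer' protein binding microarrays (Agilent AMADID 015681) probed with GST-tagged S. cerevisiae TFs (full-length or DBD) made by in vitro transcription/translation (PURExpress), about 100-200 nM. Bound TF was detected with fluorescent anti-GST. Each ungapped 8-mer (which stands for itself and its reverse complement) is scored by the PBM enrichment score (E-score), a modified Wilcoxon-Mann-Whitney statistic from -0.5 to +0.5, computed with the Universal PBM Analysis Suite. Scale: above 0.35 generally sequence-specific binding.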

Sequence | PBM E-score
CCGGGTAC | 0.0433
CGGGCCCA | 0.0644
AGGACCCC | 0.171
CCGATTCA | -0.00017
CAACGACC | 0.0148
GTGGGAAA | -0.115
ATTAGACC | -0.13
CCGCAAAA | 0.0921
AGCTCGTC | -0.0532
TTATGAAA | 0.206
GCTGCAAA | 0.104
GAATTAGA | 0.2
ACACTTTG | -0.0695
ACAACTTC | 0.192
CGGCCTCA | -0.0193
CAGAGACA | 0.0093
AACAACTT | 0.0987
GCCACGGA | -0.0878
CTCCCATC | -0.121
ACACCTCT | -0.0109
ATTAGTAG | 0.261
GACTATCC | -0.257
CCGCGTCA | 0.0347
AGACCCGA | -0.024
AGCCTAGC | -0.113

Sequence | PBM E-score
AACCCTCT | 0.00103
CCGATGCC | 0.00052
ATTTGCGG | 0.0976
TAGCGAGA | -0.167
CAATCCTG | 0.00457
CACTCCGG | 0.11
ATGGCTGA | -0.0287
CGCCGGAC | -0.107
AATCGAAG | 0.0397
AACCCGAA | 0.206
TAGCACGA | 0.0376
ACCTCTTG | 0.0745
TGCTACCA | 0.154
CTACACTC | -0.0305
GTATCTGA | -0.00789
AGGTCATG | -0.0943
GATCTGTA | 0.00749
CGGGTGGC | -0.235
AGGCTTTG | -0.105
CCGTGACA | 0.142
AAGTGGAT | 0.136
AAACGTCT | -0.00888
CGTTGTCA | -0.00721
CTCCCGGC | 0.162
TTAGTCAA | -0.034

Sequence | PBM E-score
ATGCTCGG | 0.0517
AGGTCAGA | -0.151
GTCGATGA | 0.0898
CGATCTGC | -0.135
GCGAGGTA | -0.192
GAATACTC | -0.0794
ACGTGGGG | -0.243
ATACGAGA | -0.0301
GACTGGGC | 0.00445
ATACTTCC | -0.126
CAACTGTC | 0.0117
CCGAGGCC | -0.212
ATACTTGC | 0.0173
GCGAGTAC | -0.131
CCTCTAGA | 0.109
CTCTGCTC | -0.19
AGCTTAAT | 0.0654
CGTTGAAG | -0.118
AGTCAGCA | -0.0314
ACAGGGGA | 0.0822
TACGTGGA | 0.118
CCTTGTCC | -0.198
CTGAGTAA | 0.0552
ACTCCACG | 0.0164
ATAATAAC | 0.0616

Sequence | PBM E-score
CTAAGCCA | -0.21
GCCATCTA | -0.0834
CCTGTAGA | 0.283
AGAATAAG | 0.0415
AGATCAAA | -0.0267
ATACCCTG | -0.0852
ACAAACCA | -0.112
AACGCGCA | 0.106
ACTGCTGA | -0.112
AAATGAAG | -0.0707
ACGAGTAT | -0.0948
CATGTTGG | 0.00333
GGCAATCA | -0.1
ACCAAGCT | 0.0395
CACCAGGG | -0.0322
CTCCTTGA | -0.103
AGTTGGAC | 0.0302
GGGCCGCA | -0.0751
CCGTTAAC | -0.0522
AAAAAATT | 0.076
AGTCCCAG | -0.0514
CCTGGTGC | 0.219
CCTATGGA | 0.0149
ACGCGTGG | -0.0274
CAACTAAC | 0.00118

Sequence | PBM E-score
CCAGACGC | 0.235
AAACGGAA | 0.245
GCGGAGGA | -0.18
CAAGCAGA | 0.0707
ATAGCGCC | 0.196
ATTAGCTA | -0.117
CAACCGGC | -0.0444
ATTCGCCC | -0.151
ACCCTGCG | -0.0486
AAGTGCCT | 0.0162
ATGTGTAC | -0.134
ATGAGCTG | -0.234
AGCACTAC | -0.06
GGCATTTA | -0.124
CCAGATAA | 0.0427
TGCCCAAA | 0.0545
AACCTAAC | 0.0972
AAGGTGGG | -0.11
CAGTGCTC | -0.271
ATTAAGCA | -0.00262
CGCCCTGC | -0.0571
GAGGGAGA | -0.234
AAAACCTC | -0.0876
TAACATGA | -0.0404
AAGCTTAC | -0.143

Sequence | PBM E-score
TCGGTGAA | -0.0389
CGTAAATC | 0.0344
AGCCTACG | -0.271
CATTGGAC | -0.0003
ACTGTGCA | -0.0932
CCTTTTTA | 0.128
CGAGGTTA | -0.128
TGAGGCCA | -0.0123
AGCGAGGC | -0.00747
CGGGGTGA | 0.0584
AATCTATA | 0.189
ATAGGATG | 0.333
AAGCGTAC | -0.23
GATTTAGA | 0.265
CGCAACCG | 0.24
GACTTCGA | -0.0993
GCGAGTTA | -0.105
CAGCTTCG | 0.328
ATAGTAAG | -0.0276
CACGTACA | 0.0322
AGTCCGCC | -0.0958
ACGAAGTA | -0.169
GCTCAGGA | 0.147
AAAGTGTT | -0.0645
GGACCACA | 0.0469

Sequence | PBM E-score
CGTTTTAG | -0.0467
AGGCAGAT | 0.0845
CCTCCAGA | 0.159
AATGCGGT | 0.102
AGGTTCCA | 0.327
GGACTGTA | -0.251
ACATCGCT | -0.156
CGGCAAAC | 0.111
ACTCGGGG | -0.129
CAACGGCG | -0.163
AGTGTTGC | 0.0498
TAATCGCA | -0.0296
AGTCAGAG | -0.0859
AGCGTTGC | -0.129
AAGAGAAG | 0.0746
TAAATGCA | -0.16
CATCCCTC | -0.196
ATCATTGG | -0.0867
GGAGTCCA | 0.344
TAATTAAA | -0.0174
ATACACCC | -0.0665
CAAGTGAA | -0.089
